In the supplement of paper PMC7826260:
This is one part of the list. Each Rep nickase domain was tested in vitro on the same pool of single strands for 1 h at 37 °C with 3 µM enzyme; only the middle of the 90-letter strands is printed. A value is the log2 ratio of uncut reads to the pool without enzyme; the lower, the more was cut; hits are not called. Counts are relative to all reads; uncut strands gain when others are lost, and binding without cutting may add a little.

test system: T1, Rep nickase domain of tomato golden mosaic virus; experiment: uncleaved DNA left, log2 of reads against the no-enzyme library (log2 ratio); higher = less cleavage (more negative = more Rep cleavage of the k-mer); sequences stand for … in CTCGTCCG…ACCGGAGA
T1 sequence (residues 1-124 of Rep, tag left off): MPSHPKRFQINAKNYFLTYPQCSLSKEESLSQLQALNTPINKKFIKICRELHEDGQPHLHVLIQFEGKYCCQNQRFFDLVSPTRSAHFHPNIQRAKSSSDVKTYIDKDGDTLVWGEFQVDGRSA
Procedure: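 A pool of 90-nt single-stranded DNAs with seven random bases just before the constant AC of the nick site (name = the seven bases) was cut by 3 µM recombinant His6-SUMO-tagged Rep nickase domain (300 nM DNA, 50 mM HEPES pH 8.0, 50 mM NaCl, 1 mM MnCl2, 1 h, 37 °C, three replicates). Uncut DNA was amplified and sequenced.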

Sequence	uncleaved DNA left (log2)
GGACGAT	-0.105
CTATAAT	-0.665
CGCCCCC	-0.173
TGGCGTT	-0.175
GAGCGTC	-0.00669
GGGCCAG	0.095
GGAACCA	0.0523
AAAATGG	0.153
GAGTCGT	-0.0582
TTACTTC	-0.142
CACCCTT	-0.294
GGGTCGA	0.0941
GTGAGAA	0.0962
GCCTGCC	0.0645
CTACACT	-0.0917
TTCATTC	-0.0962
CAACTCA	-0.144
CAATGTC	-0.812
TCCAATA	0.0277
ATTTAAC	-0.063

Sequence	uncleaved DNA left (log2)
CGGTACA	0.0378
AGGACGG	0.0317
AACTCTC	-0.146
CATCTAT	-0.185
CCGTTAG	-0.209
TTTAGCG	-0.135
GGGGCAC	0.00966
GACGTTA	0.136
GGTGCCC	-0.0278
GACGTGG	0.0679
ATCTGAT	0.148
GACAGCC	-0.145
TTCCTCA	0.0556
TCCCAAG	0.0262
CAACGAT	0.037
GGGTCAG	0.104
TCTCAGT	0.0953
GCCCGGA	-0.0324
ACTGAAG	0.0914
CGACCTA	-0.248
